From US20260062452A1 (CYTIVA BIOPROCESS R AND D, published 2026) come the findings set out here.

The assay addresses T1, trastuzumab Fc fragment (Homo sapiens (Human), UniProt P0DOX5, in part = IgG part).
T1 construct: also called Fc region of trastuzumab
The assay is described as follows: SPR (Biacore 8K+), polypeptide immobilised on CM5 chip, trastuzumab Fc fragment 5000 nM as analyte, 600 s injection, 600 s dissociation.

Numbering of substitutions follows the chain as printed.

B1: VH3 binding polypeptide Fr32 (SEQ ID NO:14) (designed binder)
chain: VDAKFDKEAYRALAEIARLPNLTEEQRAAFIQSLKDDPSVSKAILAEAKKLNDAQAPK
On to B1, for which the binding result is given as “no binding (tested: 5000 nM)”.

B2: VH3 binding polypeptide Fr33 (SEQ ID NO:15) (designed binder)
chain: B1 chain with A29G
Regarding B2, the binding result is “no binding (tested: 5000 nM)”.
